Hit rate of the full screen: of about 310,000 compounds, about 14,000 (4.5%) showed an effect of 50% or more. The effect is printed as a negative number. Some of the results follow.
Each molecule was assayed against human ether-à-go-go-related gene (hERG) potassium channel (human, UniProt Q12809) (assay: primary screen, population patch clamp on CHO cells stably expressing hERG).
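Further: peak tail current of the secondary pulse compared with the same well before compound.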

human ether-à-go-go-related gene (hERG) potassium channel, sequence (Q12809 whole entry, looked up): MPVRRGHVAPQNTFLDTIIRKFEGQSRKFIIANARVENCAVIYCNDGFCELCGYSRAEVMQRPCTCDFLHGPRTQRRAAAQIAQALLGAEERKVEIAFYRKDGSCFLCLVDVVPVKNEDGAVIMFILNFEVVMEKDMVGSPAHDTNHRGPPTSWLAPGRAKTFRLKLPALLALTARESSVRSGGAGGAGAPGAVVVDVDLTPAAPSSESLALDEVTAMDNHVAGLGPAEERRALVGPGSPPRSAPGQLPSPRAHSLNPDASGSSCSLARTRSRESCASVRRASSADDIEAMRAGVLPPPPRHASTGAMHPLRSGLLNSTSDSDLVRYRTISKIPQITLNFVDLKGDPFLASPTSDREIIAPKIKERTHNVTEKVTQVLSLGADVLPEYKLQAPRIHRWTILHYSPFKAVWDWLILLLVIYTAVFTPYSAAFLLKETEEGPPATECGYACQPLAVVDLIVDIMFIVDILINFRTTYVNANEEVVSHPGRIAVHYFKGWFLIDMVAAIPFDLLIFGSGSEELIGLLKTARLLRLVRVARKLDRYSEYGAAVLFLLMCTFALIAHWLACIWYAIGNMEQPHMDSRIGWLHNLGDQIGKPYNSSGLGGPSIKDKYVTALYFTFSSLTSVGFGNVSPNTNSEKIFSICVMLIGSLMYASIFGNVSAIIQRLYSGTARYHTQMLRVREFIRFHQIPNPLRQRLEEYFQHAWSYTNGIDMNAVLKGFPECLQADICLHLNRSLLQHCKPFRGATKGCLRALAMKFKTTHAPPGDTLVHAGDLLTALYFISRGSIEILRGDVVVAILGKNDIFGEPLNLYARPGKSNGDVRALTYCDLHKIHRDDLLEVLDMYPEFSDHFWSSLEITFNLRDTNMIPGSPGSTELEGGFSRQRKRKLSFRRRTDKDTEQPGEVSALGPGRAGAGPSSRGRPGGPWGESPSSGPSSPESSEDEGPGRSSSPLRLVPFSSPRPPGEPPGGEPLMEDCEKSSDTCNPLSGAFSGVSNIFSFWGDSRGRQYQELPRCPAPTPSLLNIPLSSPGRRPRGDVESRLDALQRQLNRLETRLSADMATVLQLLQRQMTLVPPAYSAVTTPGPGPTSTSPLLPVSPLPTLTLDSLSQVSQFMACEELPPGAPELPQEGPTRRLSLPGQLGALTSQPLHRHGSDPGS

Structure (SMILES) | hERG current change (%, negative = inhibition) at 10uM [%]
Cc1cc(-c2csc(N)n2)c(C)n1Cc1ccccc1 | -2.3
CCN(CC)C(=O)CC(c1cc(OC)c(OC)c(OC)c1)c1c(OC)cc(OC)c2c(-c3ccccc3)cc(=O)oc12 (stereo not shown) | 4.18
CCCC(C)CO (stereo not shown) | 18.3
CC1Cc2cc(S(=O)(=O)NCc3ccccc3)ccc2N1C(=O)C1CC1 (stereo not shown) | 0.505
COc1cc(C(c2c(C)n(C)n(-c3ccccc3)c2=O)c2c(C)n(C)n(-c3ccccc3)c2=O)cc(Br)c1O | 13.7
COc1ccc(/C=C/C(=O)NC(=S)NNC(=O)c2ccco2)cc1OC | 10.1
CCc1cccc(Nc2cc(C)nc3ncnn23)c1 | 1.12
CCOC(=O)C1C2C=CC3(CN(Cc4ccccc4)C(=O)C13)O2 (stereo not shown) | 13.7
Cc1nc(SCC(=O)NCc2ccco2)c2c3c(sc2n1)CCCC3 | -3.83
Cn1nnc(NC(=O)c2ccc(C(C)(C)C)cc2)n1 | 3.02
c1ccc(CSc2nnc3ccc(-c4ccncc4)nn23)cc1 | -58.3
Cc1nc(C)n(C)c(=O)c1-c1ccccc1 | -10.7
O=C(O)C1C2CCC(O2)C1C(=O)Nc1ccc(O)cc1 (stereo not shown) | 13.8
CC(C)(CO)CNC(=O)c1ccc2nc(Cc3cccc(Cl)c3)oc2c1 | -4.83
CCOc1ccc(C2SCC(=O)Nc3c2c(=O)[nH]n3C2CCCCCC2)cc1 (stereo not shown) | 7.29
Cc1ccc(NC(=S)NC2CCCC2)cc1C | 14.8
COc1cccc(NC(=O)COC(=O)c2c(NC(C)=O)sc(C)c2C)c1 | 12
Cc1ccc(CNS(=O)(=O)c2cc(F)ccc2CN2C(=O)c3cccnc3C2=O)o1 | -9.97
CCOC(=O)N/N=C\c1ccc(OC/C=C/c2ccccc2)c(OC)c1 | 1.18
O=C(COc1nsnc1N1CCOCC1)Nc1ccc(Cl)cc1 | -6.56

Structure (SMILES) | hERG current change (%, negative = inhibition) at 10uM [%]
CN1C(=S)SC(/[N+]([O-])=C/c2ccc(Cl)cc2)C1(C)C (stereo not shown) | 4.01
Fc1cccc(/C=N/Nc2nc3ccccc3[nH]2)c1 | 18.1
Nc1ncnc2c1ccn2[C@@H]1O[C@H](CO)[C@@H](O)[C@H]1O | -1.04
Cc1ccccc1NC(=O)COC(=O)c1ccccc1SCC(=O)N1CCCC1 | -0.0223
Cn1c(=O)c2c(nc(N/N=C/c3cccs3)n2Cc2ccccc2)n(C)c1=O | 9.85
Cc1nnc(NC(=O)c2ccc(S(=O)(=O)N3CCc4ccccc4C3)cc2)o1 | 8.81
O=C(N/N=C/c1ccc(OCc2ccccc2)cc1)c1cc[n+](Cc2ccccc2)cc1.[Cl-] | -33.1
CCOC(=O)c1ccc(NC(=O)N2CCCCC2)cc1 | 3.33
CC(C)C(NC(=O)CN1C(=O)c2ccccc2S1(=O)=O)C(C)C | -1.61
O=C(Oc1ccc(OC(=O)c2ccco2)c(S(=O)(=O)c2ccc(Cl)cc2)c1)c1ccco1 | 13.1
Cc1cc2nc3n(c2cc1C)CC1CC(C(=O)NCc2cccc(Br)c2)N(C)C31 (stereo not shown) | -72.5
Cc1ccc(-c2nc3ccccc3c(=O)n2Cc2ccccc2)cc1 | -16.9
CCCCC(=O)N/N=C/c1cc([N+](=O)[O-])ccc1N1CCOCC1 | -37.1
COc1ccc(CN(Cc2ccccn2)C(=O)CN2C(=O)COc3ccccc32)cc1 | -14.7
O=C(NCCc1cccs1)c1ccc(Cl)cc1 | -3.77
COC(=O)c1c(-c2ccc(C)cc2)csc1NC(=O)c1c(-c2ccccc2)noc1C | 12.9
Cn1ccnc1/C(=N\NC(=O)c1ccc(O)cc1)c1cccc([N+](=O)[O-])c1 | -22.7
COC(=O)C(NC(=O)C(NC(=O)C1CCC(C)CC1)C(C)C)C(C)C (stereo not shown) | 4.34
Cc1noc(C(=O)N2CC3(C)CC2CC(C)(C)C3)c1Cl (stereo not shown) | -22.3
Cn1c(SCC(=O)NC(=O)Nc2ccccc2)nnc1-c1ccncc1 | -13.5

Structure (SMILES) | hERG current change (%, negative = inhibition) at 10uM [%]
NCC(=O)CCC(=O)O | 13.3
CN1CCN(c2nc3c(c(=O)n(C)c(=O)n3C)n2Cc2ccc(Cl)cc2)CC1 | -39.5
CCC(=NCCc1ccccc1)c1c(O)n(C)c(=O)n(C)c1=O | -2.35
COc1ccc(NC(=O)CSc2nccn2Cc2ccco2)cc1OC | 11.3
Clc1ccc(-c2cc(CN3CCCCC3)no2)cc1Cl | 6.49
O=C(/C=C/c1ccccc1)NCC(=O)N/N=C/c1ccco1 | 5.53
Cn1c(SCc2nc(-c3ccccc3)no2)nnc1-c1ccco1 | -18.4
CC(C)N(C(=O)COC(=O)c1cncc(Br)c1)C(C)C | 17.2
COC(=O)c1ccc2c(C)c(C(C)(C)O)[nH]c2c1 | 10.3
CNc1ncc(C(=O)C(C)(C)C)s1 | 8.03
CC(CN1CCN(c2ccccc2)CC1)c1ccccc1 (stereo not shown) | -25.5
C/C(=N\NC(=O)c1ccc2c(c1)OCO2)c1ccco1 | 24.4
Cc1[nH]c2ccccc2c1C(C#N)(C#N)C1C(=O)c2ccccc2C1=O | 2.55
CCOC(=O)c1[nH]c2ccccc2c1NC(=O)NC(C)C | 14.5
Cc1ccc(S(=O)(=O)N2CCCCC2)cc1C(=O)N1CCCC1 | 7.66
COc1ccccc1Oc1ccc(S(=O)(=O)N2CCCCC2)cc1NC(=O)CCNC(C)=O | -55.1
COc1ccc(NC(=O)CNc2ccccc2N2CCCC2=O)cc1S(=O)(=O)N1CCOCC1 | 0.849
COC(=O)C1CCN(C(=O)COC(=O)CCc2nc3ccccc3c(=O)[nH]2)CC1 | 3.65

— article PMC4336329 (PLoS ONE, 2015)
